The other results are listed elsewhere or left out. Rule as the data show it: active = 3.2 or more and inactive = the rest. The signal is at background level for most entries.
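Also: displayed peptides selected on beads carrying the immobilized SH2 domain, with library peptides lacking any tyrosine serving as negative controls.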

The first assay has as its target SHP2 C-SH2 domain E139D. Description: enrichment score (SH2-bound / input frequency) (ratio); bacterial display of known human phosphotyrosine sites (pTyr-Var adds point mutants) read by sequencing; higher = stronger binding; tyrosines were phosphorylated by kinases first. The note with it: peptide library: pTyr-Var.
Regarding LISVSYDDWDY [GRIN2A_Y281], the enrichment score was inactive: 2.02.
Regarding SQSPHYFRSGR [GPATCH8_Y1038], the enrichment score is inactive: 0.186.
The same measure, in the same setting: as for KLPYPYDDPFS [GPX2_Y127], the figure is inactive: 0.765.
The same measure, in the same setting: as for LIFVSYDDWDF [GRIN2A_Y281_S278F_YF], the figure is active: 3.95.
Still for that read-out and setting: as for KDKLPYLYDDP [GPX2_Y125_P126L], the figure is inactive: 0.489; as for ITLKGYNLSKS [GNPTAB_Y728], inactive: 1.21.
As for EIKLAYRRRPP [GRIN2B_Y1109_E1106K], the enrichment score is inactive: 0.256.
As to KLQQWYREHRS [GPI_Y17], the enrichment score is inactive: 2.38.
AAVLNYKAWRD [GRIN2A_Y737_G740W]: the enrichment score was inactive: 1.2.
The same measure, in the same setting: as for KDKLPYLFDDP [GPX2_Y125_P126L_YF], the figure is inactive: 0.368; as for AALLNYKAGRD [GRIN2A_Y737_V734L], inactive: 1.03; as for LISVSYDDWDF [GRIN2A_Y281_YF], inactive: 1.47.
Consider GDAMLYFPSVS [GPR143_Y177_A173D_YF], for which the enrichment score is inactive: 1.01.
Still for that read-out and setting: as for STILLYHIMAW [GPR143_Y157], the figure is inactive: 1.72.
Same read-out and setting: as for EGNERYEGFCV [GRIA3_Y451_YF], the figure is inactive: 0.461; as for IGEVVYQRAVM [GRIN2A_Y502], inactive: 1.22.
Same read-out and setting: as for SNMPTYSGHFT [GRIN2A_Y1224], the figure is inactive: 0.902.
PDMHSYMVRYN [GRIN2D_Y732]: the enrichment score was inactive: 0.855.
PDMHSYMVRFN [GRIN2D_Y732_YF]: the enrichment score is inactive: 0.749.

The target in another assay is SHP2 C-SH2 domain wild-type. The description is as above. The note with it: peptide library: pTyr-Var.
As to LISVSYDDWDY [GRIN2A_Y281], the enrichment score is inactive: 1.58.
SQSPHYFRSGR [GPATCH8_Y1038]: the enrichment score was inactive: 0.263.
Same read-out and setting: as for KLPYPYDDPFS [GPX2_Y127], the figure is inactive: 0.86; as for LIFVSYDDWDF [GRIN2A_Y281_S278F_YF], active: 3.42.
Regarding KDKLPYLYDDP [GPX2_Y125_P126L], the enrichment score was inactive: 0.439.
Turning to ITLKGYNLSKS [GNPTAB_Y728], the enrichment score was inactive: 1.41.
The same measure, in the same setting: as for EIKLAYRRRPP [GRIN2B_Y1109_E1106K], the figure is inactive: 0.183; as for KLQQWYREHRS [GPI_Y17], inactive: 1.92.
Still for that read-out and setting: as for AAVLNYKAWRD [GRIN2A_Y737_G740W], the figure is inactive: 0.808; as for KDKLPYLFDDP [GPX2_Y125_P126L_YF], inactive: 0.569.
AALLNYKAGRD [GRIN2A_Y737_V734L]: the enrichment score is inactive: 0.782.
Same read-out and setting: as for LISVSYDDWDF [GRIN2A_Y281_YF], the figure is inactive: 1.42; as for GDAMLYFPSVS [GPR143_Y177_A173D_YF], inactive: 0.691; as for STILLYHIMAW [GPR143_Y157], inactive: 2.
Still for that read-out and setting: as for EGNERYEGFCV [GRIA3_Y451_YF], the figure is inactive: 0.598; as for IGEVVYQRAVM [GRIN2A_Y502], inactive: 0.978.
With SNMPTYSGHFT [GRIN2A_Y1224], the enrichment score was inactive: 0.625.
Take PDMHSYMVRYN [GRIN2D_Y732]: the enrichment score was inactive: 0.722.
Still for that read-out and setting: as for PDMHSYMVRFN [GRIN2D_Y732_YF], the figure is inactive: 0.617.

For the next assay, the target named is SHP2 N-SH2 domain L43F. Described as above. To be noted: peptide library: pTyr-Var.
Take LISVSYDDWDY [GRIN2A_Y281]: the enrichment score is inactive: 1.65.
Still for that read-out and setting: as for SQSPHYFRSGR [GPATCH8_Y1038], the figure is inactive: 0.172.
The same measure, in the same setting: as for KLPYPYDDPFS [GPX2_Y127], the figure is inactive: 0.912.
The same measure, in the same setting: as for LIFVSYDDWDF [GRIN2A_Y281_S278F_YF], the figure is active: 4.35; as for KDKLPYLYDDP [GPX2_Y125_P126L], inactive: 0.462; as for ITLKGYNLSKS [GNPTAB_Y728], inactive: 1.48.
Consider EIKLAYRRRPP [GRIN2B_Y1109_E1106K], for which the enrichment score is inactive: 0.206.
The same measure, in the same setting: as for KLQQWYREHRS [GPI_Y17], the figure is inactive: 2.25; as for AAVLNYKAWRD [GRIN2A_Y737_G740W], inactive: 1.2.
On the same count and under the same terms, as for KDKLPYLFDDP [GPX2_Y125_P126L_YF], the figure is inactive: 0.51; as for AALLNYKAGRD [GRIN2A_Y737_V734L], inactive: 0.785; as for LISVSYDDWDF [GRIN2A_Y281_YF], inactive: 1.73.
In the case of GDAMLYFPSVS [GPR143_Y177_A173D_YF], the enrichment score was inactive: 0.765.
For the molecule STILLYHIMAW [GPR143_Y157], the enrichment score was inactive: 1.82.
The same measure, in the same setting: as for EGNERYEGFCV [GRIA3_Y451_YF], the figure is inactive: 0.61.
On to IGEVVYQRAVM [GRIN2A_Y502], for which the enrichment score was inactive: 0.936.
Still for that read-out and setting: as for SNMPTYSGHFT [GRIN2A_Y1224], the figure is inactive: 0.657; as for PDMHSYMVRYN [GRIN2D_Y732], inactive: 0.645; as for PDMHSYMVRFN [GRIN2D_Y732_YF], inactive: 0.788.

The target in another assay is SHP2 N-SH2 domain T42A. The description is as above. To be noted: peptide library: pTyr-Var.
As for LISVSYDDWDY [GRIN2A_Y281], the enrichment score is inactive: 1.79.
As to SQSPHYFRSGR [GPATCH8_Y1038], the enrichment score is inactive: 0.187.
Turning to KLPYPYDDPFS [GPX2_Y127], the enrichment score is inactive: 0.78.
Still for that read-out and setting: as for LIFVSYDDWDF [GRIN2A_Y281_S278F_YF], the figure is inactive: 2.89.
For the molecule KDKLPYLYDDP [GPX2_Y125_P126L], the enrichment score is inactive: 0.535.
On the same count and under the same terms, as for ITLKGYNLSKS [GNPTAB_Y728], the figure is inactive: 0.711; as for EIKLAYRRRPP [GRIN2B_Y1109_E1106K], inactive: 0.224; as for KLQQWYREHRS [GPI_Y17], inactive: 1.65.
For the molecule AAVLNYKAWRD [GRIN2A_Y737_G740W], the enrichment score was inactive: 0.963.
Regarding KDKLPYLFDDP [GPX2_Y125_P126L_YF], the enrichment score is inactive: 0.532.
In the case of AALLNYKAGRD [GRIN2A_Y737_V734L], the enrichment score is inactive: 0.732.
Turning to LISVSYDDWDF [GRIN2A_Y281_YF], the enrichment score was inactive: 2.22.
In the case of GDAMLYFPSVS [GPR143_Y177_A173D_YF], the enrichment score was inactive: 0.781.
Take STILLYHIMAW [GPR143_Y157]: the enrichment score is inactive: 1.82.
For the molecule EGNERYEGFCV [GRIA3_Y451_YF], the enrichment score was inactive: 0.689.
On to IGEVVYQRAVM [GRIN2A_Y502], for which the enrichment score is inactive: 1.15.
Still for that read-out and setting: as for SNMPTYSGHFT [GRIN2A_Y1224], the figure is inactive: 0.487; as for PDMHSYMVRYN [GRIN2D_Y732], inactive: 0.67.
As for PDMHSYMVRFN [GRIN2D_Y732_YF], the enrichment score is inactive: 0.694.

For another assay, the target named is SHP2 N-SH2 domain T52S. Described as above. To be noted: peptide library: pTyr-Var.
On to LISVSYDDWDY [GRIN2A_Y281], for which the enrichment score is inactive: 1.66.
Same read-out and setting: as for SQSPHYFRSGR [GPATCH8_Y1038], the figure is inactive: 0.239.
For the molecule KLPYPYDDPFS [GPX2_Y127], the enrichment score was inactive: 0.898.
For LIFVSYDDWDF [GRIN2A_Y281_S278F_YF], the enrichment score was active: 3.89.
Same read-out and setting: as for KDKLPYLYDDP [GPX2_Y125_P126L], the figure is inactive: 0.444; as for ITLKGYNLSKS [GNPTAB_Y728], inactive: 1.21; as for EIKLAYRRRPP [GRIN2B_Y1109_E1106K], inactive: 0.218.
Same read-out and setting: as for KLQQWYREHRS [GPI_Y17], the figure is inactive: 2.18; as for AAVLNYKAWRD [GRIN2A_Y737_G740W], inactive: 0.96.
Same read-out and setting: as for KDKLPYLFDDP [GPX2_Y125_P126L_YF], the figure is inactive: 0.62.
Regarding AALLNYKAGRD [GRIN2A_Y737_V734L], the enrichment score was inactive: 0.806.
On the same count and under the same terms, as for LISVSYDDWDF [GRIN2A_Y281_YF], the figure is inactive: 1.47.
On the same count and under the same terms, as for GDAMLYFPSVS [GPR143_Y177_A173D_YF], the figure is inactive: 0.76.
As to STILLYHIMAW [GPR143_Y157], the enrichment score was inactive: 1.93.
For EGNERYEGFCV [GRIA3_Y451_YF], the enrichment score was inactive: 0.567.
Take IGEVVYQRAVM [GRIN2A_Y502]: the enrichment score is inactive: 0.921.
As to SNMPTYSGHFT [GRIN2A_Y1224], the enrichment score is inactive: 0.545.
On to PDMHSYMVRYN [GRIN2D_Y732], for which the enrichment score was inactive: 0.598.
Still for that read-out and setting: as for PDMHSYMVRFN [GRIN2D_Y732_YF], the figure is inactive: 0.665.

For a further assay, the target named is SHP2 N-SH2 domain wild-type. Described as above. To be noted: peptide library: pTyr-Var.
For the molecule LISVSYDDWDY [GRIN2A_Y281], the enrichment score is inactive: 1.99.
Still for that read-out and setting: as for SQSPHYFRSGR [GPATCH8_Y1038], the figure is inactive: 0.229; as for KLPYPYDDPFS [GPX2_Y127], inactive: 1.08; as for LIFVSYDDWDF [GRIN2A_Y281_S278F_YF], active: 3.42.
The same measure, in the same setting: as for KDKLPYLYDDP [GPX2_Y125_P126L], the figure is inactive: 0.48.
For ITLKGYNLSKS [GNPTAB_Y728], the enrichment score was inactive: 0.878.
For EIKLAYRRRPP [GRIN2B_Y1109_E1106K], the enrichment score was inactive: 0.359.
Same read-out and setting: as for KLQQWYREHRS [GPI_Y17], the figure is inactive: 2.04; as for AAVLNYKAWRD [GRIN2A_Y737_G740W], inactive: 0.907; as for KDKLPYLFDDP [GPX2_Y125_P126L_YF], inactive: 0.502.
The same measure, in the same setting: as for AALLNYKAGRD [GRIN2A_Y737_V734L], the figure is inactive: 0.92.
Regarding LISVSYDDWDF [GRIN2A_Y281_YF], the enrichment score was inactive: 1.15.
Regarding GDAMLYFPSVS [GPR143_Y177_A173D_YF], the enrichment score was inactive: 0.728.
Same read-out and setting: as for STILLYHIMAW [GPR143_Y157], the figure is inactive: 2.01; as for EGNERYEGFCV [GRIA3_Y451_YF], inactive: 0.823.
Same read-out and setting: as for IGEVVYQRAVM [GRIN2A_Y502], the figure is inactive: 0.896; as for SNMPTYSGHFT [GRIN2A_Y1224], inactive: 0.518.
With PDMHSYMVRYN [GRIN2D_Y732], the enrichment score is inactive: 0.574.
Still for that read-out and setting: as for PDMHSYMVRFN [GRIN2D_Y732_YF], the figure is inactive: 0.851.

Values taken from the supplement of paper PMC10369915.
